Measurements as given in patent US7297551B2, “Recombinant proteins and peptides for endotoxin biosensors, endotoxin removal, and anti-microbial and anti-endotoxin therapeutics” (priority 1998, dated 2007).
Read-outs that look alike come from different tables or passages of the source. Part of at least one peptide drawing is inferred or uncertain, most often the ends. Ends that are not written are not given here.

How the values were obtained:
[1] = test system: LPS-induced hTNF-α secretion from THP-1; assay: Inhibition of LPS-induced hTNF-α secretion from PMA-treated THP-1 cells; format: cell-based, human
Method: […] THP-1 cells were grown in RPMI 1640 medium supplemented with 10% FBS, penicillin (100 U/ml) and streptomycin (0.1 mg/ml), at 37° C. in a humidified environment in the presence of 5% CO2. The cells were maintained at a density between 2.5×10^5 and 2.5×10^6 cells/ml.
THP-1 cells were prepared for experiment by addition of a concentrated stock solution of phorbol myristate acetate (PMA, 0.3. mg/ml in dimethyl sulfoxide) to cell suspension to give a final concentration of 30 ng/ml PMA and 0.01% dimethyl sulfoxide (25). PMA-treated cell suspensions were immediately plated into 96-well microtitre plate at a density of 4×10^5 cells/ml and allowed to differentiate for 48 hours at 37° C. […] At indicated times, the culture medium was collected.

[2] = Hill's plot for interaction between synthetic peptides and lipid A; format: binding; settings: number of peptide molecules to 1 LPS molecule
[3] = Inhibition of endotoxin-induced LAL reaction (Limulus Kinetic-QCL); format: biochemical, E. coli; settings: peptide needed to neutralize 50% of 200 EU/ml LPS-induced LAL reaction; read-out: LPS-Neutralisation ENC10
[4] = Protection of galactosamine-sensitized mice from LPS-induced lethality; format: in vivo, C57BL/6J mice; settings: 75 μg peptide, 2 ng LPS pre-incubated with peptide 30 minutes
Method: The anti-endotoxin potency of SSCrFCES was investigated in C57BL/6J mice. Mice are typically resistant to endotoxin. However, the sensitivity of mice to endotoxin can be enhanced >1,000-fold by co-injection with a liver-specific inhibitor, galactosamine (31). […] […] Lethality was observed over 3 days after injection. Statistical analysis were performed using the Kaplan-Meier test (32) and log rank pairwise test.

[5] = peptide needed for 50% suppression, read-out: Suppression of LPS-Induced cytokine TNF-α (50%)

Sequence	IC50 [1, 5] [µM]	Stoichiometry of Binding Cooperativity Hill's Coefficient [2]	EC50 [3] [µM]	Mouse Protection Assay [4] [% at 75]	IC50 ([1]; read-out: 50% inhibition of LPS-induced TNF-α release, 10 ng/ml LPS, serum-free) [µM]
GVSTTVLNIYRGIINLLQLNVKK [S8-vg3]	20	0.9	0.03		
HAEHKVKIGVEQKYGQFPQGTEVTYTCSGNYFLM [S3]	94	0.99		58	
HAEHKVKIKVKQKYGQFPQGTEVTYTCSGNYFLM [S3Δ]	40	0.91			45.8
HKVKKIVKQLYRAEHKVKKIVKQL [S5]	> 200	2.1	> 0.25		
IYRGIINLIQLAVKKAQNVYQM [S9-vg4]	25	1.0	> 0.25		
LLNAVPHKATHAALKFLKEK [S7-vg2]	30	1.1	> 0.25		
MRKLVLALAKALAKVDKKNL [S6-vg1]	37.5	1.0	> 0.25		
RAEHKVKKIVKQLYGQFRQLTRVTRTCSRFLRRM [S4]	20	0.3	0.01		
